# Several values for one entry are separate records, joined by “and”; a condition that tells them apart may be missing. Equal entries are not always repeated. ± gives the uncertainty stated by the source. Whole data set: some 9,900 compounds, median “viability index relative to DMSO control” near 1, cut for the lowest 2% near 0.85. This is one part of the list.
# Tested on: Plasmodium falciparum NF54 stage V gametocytes
# Assay: viability index relative to DMSO control (fraction); higher = less gametocyte killing
# Conditions: 2.5 µM, library set: Broad Institute DOS, incubation time: 72 h
# How it was run: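 In 1,536-well plates, 10 µl of serum-free medium holding P. falciparum NF54 stage V gametocytes (0.75% gametocytemia, 1.25% hematocrit) received compound at 2.5 µM for 72 hr at 37°C in low oxygen. After one to two hours with 3 µl of 2.5 µM MitoTracker Red CMXRos containing 0.13% saponin, red particles of 20–70 µm2 were counted in a single field per well. Viability index is reported as the particle count over the plate mean of wells treated with solvent only.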
row,Structure (SMILES),viability index
1,COc1ccc2c3c([nH]c2c1)[C@H](CO)N(C[C@]31CCN(CC1)C(=O)C1CCCCC1)C(=O)NC(C)C,0.913 ± 0.072
2,CN1C(=O)c2cc(NS(C)(=O)=O)ccc2OC[C@@H]2O[C@H](CC(=O)N3CCOCC3)CC[C@@H]21,0.983 ± 0.21
3,C[C@@H](NC(=O)C[C@H]1C=C[C@@H](NC(=O)c2cccnc2)[C@H](CO)O1)c1ccccc1,0.964 ± 0.034
4,C[C@@H]1CN([C@@H](C)CO)C(=O)c2c(c3ccccc3n2C)-c2ccccc2CO[C@@H]1CN(C)C(=O)Nc1ccccc1C(F)(F)F,0.955 ± 0.039
5,C/C=C/c1ccc([C@@H]2[C@@H](CO)N(Cc3nccs3)C23CN(CC2CCCC2)C3)cc1,1.08 ± 0.046
6,O=C(C[C@H]1CC[C@H]2NC[C@@H](O)COC[C@@H]2O1)N1CCc2ccccc2C1,1.03 ± 0.049
7,COC(=O)C[C@H]1CC[C@@H]2[C@H](COc3ccc(NC(=O)Nc4cccc(C#N)c4)cc3C(=O)N2C)O1,1.1 ± 0.091
8,CN(C[C@H]1N[C@H](CO)[C@@H]1c1ccc(-c2cccnc2)cc1)C(=O)NC1CCCC1,1.01 ± 0.059
9,CCCNC(=O)N1C[C@H](C)[C@@H](OC)CN(C)C(=O)c2ccc(NC(=O)CC)cc2OC[C@H]1C,1.09 ± 0.018
10,CCCNC(=O)N1C[C@]2(CCN(CC2)C(=O)c2cccc(F)c2)c2c([nH]c3cc(OC)ccc23)[C@H]1CO,0.967 ± 0.012
11,Cc1noc(C)c1S(=O)(=O)Nc1cccc2c1O[C@H](CN(C)Cc1ccc(C(F)(F)F)cc1)[C@H](C)CN([C@@H](C)CO)C2=O,0.938 ± 0.046
12,CC(C)C#Cc1ccc([C@H]2[C@@H](CO)N3C(=O)CN(C(=O)c4ccc5c(c4)OCO5)C[C@@H]23)cc1,1.03 ± 0.021
13,C[C@H]1CN([C@@H](C)CO)C(=O)CCCn2nncc2CO[C@H]1CN(C)Cc1ccccc1C(=O)O,1.06 ± 0.0015
14,O=C(C[C@H]1C[C@H]2c3cc(NS(=O)(=O)c4ccc(F)cc4)ccc3O[C@H]2[C@@H](CO)O1)NCCN1CCCCC1,1.05 ± 0.05
15,CN1C(=O)c2cc(NC(=O)Cc3cccs3)ccc2OC[C@@H]2O[C@@H](CC(=O)N[C@@H]3CCN(Cc4ccccc4)C3)CC[C@@H]21,1.11 ± 0.14
16,C[C@H](CO)N1C[C@H](C)[C@@H](CN(C)S(=O)(=O)c2cccs2)Oc2ccc(NC(=O)CCCCCC(=O)Nc3ccccc3N)cc2CC1=O,1.038 ± 0.0059
17,CCS(=O)(=O)N1C[C@@]2(C1)CN([C@@H](CO)c1c2c2ccc(OC)cc2n1C)S(=O)(=O)c1ccccc1,1.04 ± 0.1
18,Cc1noc(C)c1C(=O)N(C)C[C@@H]1OCc2ccccc2-c2ccccc2C(=O)N([C@H](C)CO)C[C@@H]1C,0.938 ± 0.24
19,Cc1noc(C)c1NC(=O)N1C[C@H](O)COC[C@H]2O[C@H](CC(=O)N3CCc4ccccc4C3)CC[C@@H]21,1.01 ± 0.11
20,CCCNC(=O)c1cc2c(c(-c3cccc(-c4cc5ccccc5o4)c3)n1)[C@@H](CCO)N(C(=O)NC(C)C)C2,0.926 ± 0.08
21,COC(=O)C[C@@H]1CC[C@H]2[C@@H](COC[C@H](O)CN2S(=O)(=O)c2cn(C)cn2)O1,1.05 ± 0.047
22,c1cc(-c2ccc([C@H]3[C@H]4CNC[C@@H]3N4Cc3nccs3)cc2)ccn1,1.06 ± 0.059

row,Structure (SMILES),viability index
1,C[C@@H]1CCCCO[C@H](CN(C)S(=O)(=O)c2cn(C)cn2)[C@@H](C)CN([C@H](C)CO)C(=O)c2cc(NC(=O)Nc3cccc4ccccc34)ccc2O1,1.16 ± 0.045
2,CO[C@H](CN(C)S(=O)(=O)c1cccc(Cl)c1)[C@@H](C)CN(C(=O)Nc1ccccc1F)[C@@H](C)CO,1.08 ± 0.019
3,C[C@H](NC(=O)C[C@@H]1CC[C@H]2[C@@H](COc3ccc(NC(=O)C4CCOCC4)cc3C(=O)N2C)O1)c1ccccc1,1.19 ± 0.17
4,N#Cc1ccc(-c2ccc([C@@H]3[C@@H](CO)N4C(=O)CNC[C@@H]34)cc2)cc1,1.01 ± 0.11
5,NCC[C@H]1CC[C@H](NS(=O)(=O)c2ccc(Cl)cc2)[C@H](CO)O1,0.803 and 1.11
6,Cc1noc(C)c1S(=O)(=O)N(C)C[C@@H]1OCc2ccccc2-c2c(n(C)c3ccccc23)C(=O)N([C@H](C)CO)C[C@@H]1C,0.953 ± 0.036
7,COCCNC(=O)C[C@H]1C[C@H]2c3cc(NC(=O)CN(C)C)ccc3O[C@H]2[C@@H](CO)O1,1.09 ± 0.04
8,O=C(NCc1ccc(F)cc1)[C@@H]1[C@@H](CO)[C@@H]2Cn3c(cccc3=O)[C@@H]2N1C(=O)c1cccnc1,1.05 ± 0.044
9,C[C@H](CO)N1C[C@H](C)[C@@H](CN(C)C(=O)NC2CCCCC2)Oc2c(NC(=O)c3cnccn3)cccc2C1=O,1.09 ± 0.059
10,Cc1noc(C)c1S(=O)(=O)N(C)C[C@H]1OCc2ccccc2-c2c(n(C)c3ccccc23)C(=O)N([C@H](C)CO)C[C@@H]1C,0.935 ± 0.045
11,C[C@H]1CN([C@@H](C)CO)C(=O)Cc2cc(NS(=O)(=O)c3ccc(Cl)cc3)ccc2O[C@@H]1CN(C)C(=O)Nc1ccc(C(F)(F)F)cc1,1.01 ± 0.025
12,CCCNC(=O)N1[C@H](C#N)[C@H](c2ccccc2-c2ccccc2F)[C@@H]1CO,1.04 ± 0.072
13,C[C@H](NC(=O)[C@H]1[C@H](CO)[C@H]2Cn3c(cccc3=O)[C@H]2N1CCC(F)(F)F)c1ccccc1,1.05 ± 0.058
14,N#C[C@@H]1[C@H](c2ccccc2-c2cccc(F)c2)[C@H](CO)N1C(=O)C1CC1,1.15 ± 0.046
15,OC[C@H]1[C@@H](c2ccccc2)C2(CN(Cc3nccs3)C2)N1CC1CCOCC1,1.02 ± 0.02
16,C[C@H](CO)N1C[C@H](C)[C@@H](CN(C)C(=O)[C@H](Cc2ccccc2)N(C)C)OCc2ccccc2-c2c(n(C)c3ccccc23)C1=O,0.994 ± 0.068
17,CN1C(=O)c2cc(NS(=O)(=O)c3cccc(F)c3)ccc2OC[C@@H]2O[C@@H](CC(=O)NCCN3CCCCC3)CC[C@@H]21,0.913 ± 0.13
18,CO[C@@H]1CN(C)C(=O)c2cc(NC(=O)CC(F)(F)F)ccc2OC[C@H](C)N(CC2CC2)C[C@@H]1C,1.008 ± 0.01
19,C[C@@H]1CN([C@@H](C)CO)C(=O)CCCn2nncc2CO[C@H]1CN(C)C(=O)CCC(F)(F)F,1.01 ± 0.036
20,C[C@H](CO)N1C[C@H](C)[C@H](CN(C)Cc2ccc3c(c2)OCO3)OCCCC[C@H](C)Oc2ccc(NS(=O)(=O)c3cn(C)cn3)cc2C1=O,1.08 ± 0.0099
21,COc1ccc(-c2ccccc2[C@H]2[C@@H](C#N)N(C(=O)C3CCC3)[C@H]2CO)cc1,1.09 ± 0.088
22,CCCNC(=O)N1C[C@@]2(C1)CN([C@H](CO)c1[nH]c3cc(OC)ccc3c21)C(=O)NC1CCCC1,0.9276 ± 0.0024

# — the supplement of paper PMC4723716
